Assay results as given in US20250092146A1 (ABILITA BIO, published 2025).
Blank lines part the entries; values can stand above or below the binder they belong to.

What was measured:
human CCR8 (hCCR8) [1] = biological target: T1, human CCR8 (hCCR8) (human, UniProt P51685 1-355); experiment: flow cytometry on HEK293-hCCR8 cells, VHH-Fc; normalized to wild type VHH-2-Fc
T1 construct: On transfected HEK293/HEK293T cells, or naturally expressed on HuT-78 cells; also called C-C chemokine receptor type 8

human CCR8 (hCCR8) [2] = biological target: T1, human CCR8 (hCCR8); experiment: flow cytometry on HEK293-hCCR8 cells, VHH-Fc
human CCR8 (hCCR8) [3] = biological target: T1, human CCR8 (hCCR8); experiment: flow cytometry on HuT-78 cells, VHH-Fc fusion; normalized to VHH-1
human CCR8 (hCCR8) [4] = biological target: T1, human CCR8 (hCCR8); experiment: flow cytometry on HuT-78 cells, VHH-Fc fusion

T1 sequence (P51685 whole entry, the tested form may be a part): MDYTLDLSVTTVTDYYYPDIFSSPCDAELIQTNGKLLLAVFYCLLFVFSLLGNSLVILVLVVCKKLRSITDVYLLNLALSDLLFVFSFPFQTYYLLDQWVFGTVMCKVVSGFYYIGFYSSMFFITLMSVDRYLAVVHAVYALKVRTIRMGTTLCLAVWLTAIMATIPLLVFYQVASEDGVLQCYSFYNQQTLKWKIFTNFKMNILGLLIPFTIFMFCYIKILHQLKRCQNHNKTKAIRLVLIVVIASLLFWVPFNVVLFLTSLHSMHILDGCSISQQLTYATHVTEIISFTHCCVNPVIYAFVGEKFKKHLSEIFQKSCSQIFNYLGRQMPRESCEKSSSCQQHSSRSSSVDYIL

B9: VHH-1.3-2-Fc (Fc fusion)
chain: EVQLVESGGGLVQPGGSLRLSCAASGSTSSIRRIGWYRQAPGKGRELVARFSSGGGTNYADSVKGRFTISGDNSKNTMYLQMNSLRAEDTAVYYCSARRLVGTSRVDYWGQGTTVTVSS[human IgG1 Fc not given here]
notes: Against VHH-1.3 (IMGT): L110V
- Normalized Bmax (%) (human CCR8 (hCCR8) [3]): 116%
- EC50 (human CCR8 (hCCR8) [4]): 2.21 nM

B11: VHH-1.3-9-Fc (Fc fusion)
chain: EVQLVESGGGLVQPGGSLRLSCAASGSTSSIRRIGWYRQAPGKGRELVARFSGGGSINYADSVKGRFTISGDNSKNTMYLQMNSLRAEDTAVYYCSARRLVGTSRVDYWGQGTQVTVSS[human IgG1 Fc not given here]
notes: Against VHH-1.3 (IMGT): S58G, G64S, T65I, L110V
- Normalized Bmax (%) (human CCR8 (hCCR8) [3]): 124%
- EC50 (human CCR8 (hCCR8) [4]): 0.58 nM

B13: VHH-1.3-7-Fc (Fc fusion)
chain: EVQLVESGGGLVQPGGSLRLSCAVSGSTSSIRRIGWYRQAPGKGRELVAHFSSGGGTNYADSVKGRFTISGDKSKNTMYLQMNSLRAEDTAVYYCSARRLLGTSRVDYWGQGTTVTVSS[human IgG1 Fc not given here]
notes: Against VHH-1.3 (IMGT): A25V, R55H, N82K
- Normalized Bmax (%) (human CCR8 (hCCR8) [3]): 112%
- EC50 (human CCR8 (hCCR8) [4]): 0.56 nM

B14: VHH-1.3-4-Fc (Fc fusion)
chain: EVQLVESGGGLVQPGGSLRLSCAASGSTSSIRTIGWYRQAPGKGRELVARFSSGGGTNYADSVKGRFTISGDNSKNTMYLQMNSLRAEDTAVYYCSARILLGTSRVDYWGQGTTVTVSS[human IgG1 Fc not given here]
notes: Against VHH-1.3 (IMGT): R38T, R108I
- Normalized Bmax (%) (human CCR8 (hCCR8) [3]): 82.4%
- EC50 (human CCR8 (hCCR8) [4]): 7.68 nM

B15: VHH-1.3-6-Fc (Fc fusion)
chain: EVQLVESGGGLVQPGGSLRLSCAASGSTSSIRRIGWYRQAPGKGRELVAHFSSGGGTNYADSVKGRFTISGDNSKNTMYLQMNSLRAEDTAVYYCSARRLLGTSRVDYWGQGTTVTVSS[human IgG1 Fc not given here]
notes: Against VHH-1.3 (IMGT): R55H
- Normalized Bmax (%) (human CCR8 (hCCR8) [3]): 97%
- EC50 (human CCR8 (hCCR8) [4]): 3.75 nM

B16: VHH-1.3-13-Fc (Fc fusion)
chain: EVQLVESGGGLVQPGGSLRLSCAVSGSTSSIRGIGWYRQAPGKGRELVARFISGGGTNYADSVKGRFTISGDNSKNTMYLQMNSLRAEDTAVYYCSARRLLGTSRVDYWGQGTQVTVSS[human IgG1 Fc not given here]
notes: Against VHH-1.3 (IMGT): A25V, R38G, S57I
- Normalized Bmax (%) (human CCR8 (hCCR8) [3]): 91.1%
- EC50 (human CCR8 (hCCR8) [4]): 0.38 nM

B17: VHH-1.3-5-Fc (Fc fusion)
chain: EVQLVESGGGLVQPGGSLRLSCAASGSTSSIRRIGWYRQAPGKGRELVAGFSSGGGTNYADSVKGRFTISGDNSKNTMYLQMNSLRAEDTAVYYCSARRLLGTSRVDYWGQGTTVTVSS[human IgG1 Fc not given here]
notes: Against VHH-1.3 (IMGT): R55G
- Normalized Bmax (%) (human CCR8 (hCCR8) [3]): 90.1%
- EC50 (human CCR8 (hCCR8) [4]): 4.42 nM

B18: VHH-1.3-14-Fc (Fc fusion)
chain: EVQLVESGGGLVQPGGSLRLSCAASGSTSSIRRIGWYRQAPGKGRELVARFSSGGSINYADSVKGRFTISGDNSKNTMYLQMNSLRAEDTAVYYCSARRLVGTSRVDYWGQGTQVTVSS[human IgG1 Fc not given here]
notes: Against VHH-1.3 (IMGT): G64S, L110V
- Normalized Bmax (%) (human CCR8 (hCCR8) [3]): 132%
- EC50 (human CCR8 (hCCR8) [4]): 0.9 nM

B19: VHH-1.3-15-Fc (Fc fusion)
chain: EVQLVESGGGLVQPGGSLRLSCAASGSTSSIRRIGWYRQAPGKGRELVARFSGGGGTNYADSVKGRFTISGDNSKNTMYLQMNSLRAEDTAVYYCSARRLLGTSRVDYWGQGTTVTVSS[human IgG1 Fc not given here]
notes: Against VHH-1.3 (IMGT): S58G
- Normalized Bmax (%) (human CCR8 (hCCR8) [3]): 107%
- EC50 (human CCR8 (hCCR8) [4]): 2.82 nM

B20: VHH-1.3-10-Fc (Fc fusion)
chain: QVQLQESGGGLVQPGGSLRLSCAASGSTSSIRRIGWYRQAPGKGRELVARFSSGGGINYADSVKGRFTISGDNSKNTMYLQMNSLRAEDTAVYYCSARRLVGTSRVDYWGQGTQVTVSS[human IgG1 Fc not given here]
notes: Against VHH-1.3 (IMGT): T65I, L110V
- Normalized Bmax (%) (human CCR8 (hCCR8) [3]): 125%
- EC50 (human CCR8 (hCCR8) [4]): 1.3 nM

B21: VHH-1.3-12-Fc (Fc fusion)
chain: EVQLVESGGGLVQPGGSLRLSCAASGFTSSIRRIGWYRQAPGKGRELVARFSSGGTTNYADSVKGRFTISGDNSKNTMYLQMNSLRAEDTAVYYCSARRLYGTSRVDYWGQGTQVTVSS[human IgG1 Fc not given here]
notes: Against VHH-1.3 (IMGT): S28F, G64T, L110Y
- Normalized Bmax (%) (human CCR8 (hCCR8) [3]): 79.6%
- EC50 (human CCR8 (hCCR8) [4]): 1.24 nM

B22: VHH-1.3-11-Fc (Fc fusion)
chain: QVQLQESGGGLVQPGGSLRLSCAASGSTSSIRRIGWYRQAPGKGRELVARFSSGGTINYADSVKGRFTISGDNSKNTMYLQMNSLRAEDTAVYYCSARRLLGTSRVDYWGQGTQVTVSS[human IgG1 Fc not given here]
notes: Against VHH-1.3 (IMGT): G64T
- Normalized Bmax (%) (human CCR8 (hCCR8) [3]): 79.6%
- EC50 (human CCR8 (hCCR8) [4]): 0.61 nM

B23: VHH-1.3-8-Fc (Fc fusion)
chain: EVQLVESGGGLVQPGGSLRLSCAASGSTSSIRRIGWYRQAPGKGRELVARFSSGIGTNYADSVKGRFTISGDNSKNTMYLQMNSLRAEDTAVYYCSARRLVGTSRVDYWGQGTQVTVSS[human IgG1 Fc not given here]
notes: Against VHH-1.3 (IMGT): G63I, L110V
- Normalized Bmax (%) (human CCR8 (hCCR8) [3]): 63.4%
- EC50 (human CCR8 (hCCR8) [4]): 1.36 nM

B24: VHH-1.3-3-Fc (Fc fusion)
chain: EVQLVESGGGLVQPGGSLRLSCAASGSTSSIRRYSWYRQAPGKGRELVAWFSSGGGTNYADSVKGRFTISGDNSKNTMYLQMNSLRAEDTAVYYCSARRLLGTSRVDYWGQGTQVTVSS[human IgG1 Fc not given here]
notes: Against VHH-1.3 (IMGT): I39Y, G40S, R55W
- Normalized Bmax (%) (human CCR8 (hCCR8) [3]): 104%
- EC50 (human CCR8 (hCCR8) [4]): 1.81 nM

Now from value to binder:

- % Bmax (human CCR8 (hCCR8) [1]): 50%
- EC50 (human CCR8 (hCCR8) [2]): 0.84 nM
B1: VHH-2-Fc I36A (Fc fusion)
heavy: QVQLQESGGGLVQAGGSLRLTCAVSGSTSTANRFAWYRQAPGKQRELVAATSSRTSPNYADSVKGRFRFSRDNARSAVYLQMDNLRPEDTAVYFCQARMAMGSSQVVYWGLGTQVTVSS[human IgG1 Fc not given here]
notes: rest as VHH-2-Fc

- % Bmax (human CCR8 (hCCR8) [1]): 68%
- EC50 (human CCR8 (hCCR8) [2]): 2.47 nM
B2: VHH-2-Fc R59A (Fc fusion)
heavy: QVQLQESGGGLVQAGGSLRLTCAVSGSTSTINRFAWYRQAPGKQRELVAATSSATSPNYADSVKGRFRFSRDNARSAVYLQMDNLRPEDTAVYFCQARMAMGSSQVVYWGLGTQVTVSS[human IgG1 Fc not given here]
notes: rest as VHH-2-Fc

- % Bmax (human CCR8 (hCCR8) [1]): 68%
- EC50 (human CCR8 (hCCR8) [2]): 0.96 nM
B3: VHH-2-Fc Q114A (Fc fusion)
chain: QVQLQESGGGLVQAGGSLRLTCAVSGSTSTINRFAWYRQAPGKQRELVAATSSRTSPNYADSVKGRFRFSRDNARSAVYLQMDNLRPEDTAVYFCQARMAMGSSAVVYWGLGTQVTVSS[human IgG1 Fc not given here]
notes: rest as VHH-2-Fc

- % Bmax (human CCR8 (hCCR8) [1]): 63%
- EC50 (human CCR8 (hCCR8) [2]): 1.62 nM
B4: VHH-2-Fc M108A (Fc fusion)
chain: QVQLQESGGGLVQAGGSLRLTCAVSGSTSTINRFAWYRQAPGKQRELVAATSSRTSPNYADSVKGRFRFSRDNARSAVYLQMDNLRPEDTAVYFCQARAAMGSSQVVYWGLGTQVTVSS[human IgG1 Fc not given here]
notes: rest as VHH-2-Fc

- % Bmax (human CCR8 (hCCR8) [1]): 42%
- EC50 (human CCR8 (hCCR8) [2]): 1.92 nM
B5: VHH-2-Fc N37A (Fc fusion)
heavy: QVQLQESGGGLVQAGGSLRLTCAVSGSTSTIARFAWYRQAPGKQRELVAATSSRTSPNYADSVKGRFRFSRDNARSAVYLQMDNLRPEDTAVYFCQARMAMGSSQVVYWGLGTQVTVSS[human IgG1 Fc not given here]
notes: rest as VHH-2-Fc

- % Bmax (human CCR8 (hCCR8) [1]): 22%
- EC50 (human CCR8 (hCCR8) [2]): 6.02 nM
B6: VHH-2-Fc R38A (Fc fusion)
heavy: QVQLQESGGGLVQAGGSLRLTCAVSGSTSTINAFAWYRQAPGKQRELVAATSSRTSPNYADSVKGRFRFSRDNARSAVYLQMDNLRPEDTAVYFCQARMAMGSSQVVYWGLGTQVTVSS[human IgG1 Fc not given here]
notes: rest as VHH-2-Fc

- % Bmax (human CCR8 (hCCR8) [1]): 58%
- EC50 (human CCR8 (hCCR8) [2]): 1.92 nM
B7: VHH-2-Fc M110A (Fc fusion)
chain: QVQLQESGGGLVQAGGSLRLTCAVSGSTSTINRFAWYRQAPGKQRELVAATSSRTSPNYADSVKGRFRFSRDNARSAVYLQMDNLRPEDTAVYFCQARMAAGSSQVVYWGLGTQVTVSS[human IgG1 Fc not given here]
notes: rest as VHH-2-Fc

- % Bmax (human CCR8 (hCCR8) [1]): 73%
- EC50 (human CCR8 (hCCR8) [2]): 1.9 nM
B8: VHH-2-Fc Q105A (Fc fusion)
chain: QVQLQESGGGLVQAGGSLRLTCAVSGSTSTINRFAWYRQAPGKQRELVAATSSRTSPNYADSVKGRFRFSRDNARSAVYLQMDNLRPEDTAVYFCAARMAMGSSQVVYWGLGTQVTVSS[human IgG1 Fc not given here]
notes: rest as VHH-2-Fc

- Normalized Bmax (%) (human CCR8 (hCCR8) [3]): 79%
- EC50 (human CCR8 (hCCR8) [4]): 3.1 nM
B10: VHH-1.3-16-Fc (Fc fusion)
chain: EVQLVESGGGLVQPGGSLRLSCAASGSTSTIVRIGWYRQAPGKGRELVARFSSGGSTNYADSVKGRFTISGDNSKNTMYLQMNSLRAEDTAVYYCSARILLGTSRVDYWGQGTTVTVSS[human IgG1 Fc not given here]
notes: Against VHH-1.3 (IMGT): S35T, R37V, G64S, R108I

- Normalized Bmax (%) (human CCR8 (hCCR8) [3]): 113%
- EC50 (human CCR8 (hCCR8) [4]): 0.31 nM
B12: VHH-1.3-18-Fc (Fc fusion)
chain: EVQLVESGGGLVQPGGSLRLSCAVSGSTSSIRGIGWYRQAPGKGRELVARFISGGGTNYADSVKGRFTISGDKSKNTMYLQMNSLRAEDTAVYYCSARRLLGTSRVDYWGQGTTVTVSS[human IgG1 Fc not given here]
notes: Against VHH-1.3 (IMGT): A25V, R38G, S57I, N83K
